Assay [1] concerns the target T1, EGFR on BxPC-3 cells (UniProt P00533). Description: cell-based or functional assay.
The target in assay [2] is T1, EGFR on BxPC-3 cells. Description: cell-based or functional assay. This is another data set of the same source.
Assay [3] deals with T2, His-tagged human EGFR (human, UniProt P00533 part only, limits assumed).
T2 construct: also called huEGFR
Kind of assay: BLI (Octet), antibody on AHC sensors, His-tagged human EGFR in solution, 1:1 global fit. (In BLI a coated tip is dipped into the sample, and binding shifts an interference pattern.)

Assay [4] concerns the target T2, His-tagged human EGFR. Described as above. This is another data set of the same source.

Where two headings read alike, the source gives them in different places.

From patent publication US20250353917A1 (SYSTIMMUNE, published 2025) come the findings set out here.

B1: SI-55H11 (other)
heavy: EIVLTQSPSTLSVSPGERATFSCRASQSIGTNIHWYQQKPGKPPRLLIKYASESISGIPDRFSGSGSGTEFTLTISSVQSEDFAVYYCQQNNNWPTTFGPGTKLTVLGGGGSGGGGSGGGGSGGGGSQVQLQQSGPGLVKPSETLSITCTVSGFSLTNYGVHWIRQAPGKGLEWLGVIWSGGNTDYNTPFTSRFTITKDNSKNQVYFKLRSVRADDTAIYYCARALTYYDYEFAYWGQGTLVTVSSGGGGSGGGGSGGGGSGGGGSEVQLVESGGGLVQPGGSLRLSCAASGFTISTNAMSWVREAPGKCLEWIGVITGRDITYYASWAKGRFTISRDNSKNTLYLQMNSLRAEDTAVYYCARDGGSSAITSNNIWGQGTLVTVSSASTKGPSVFPLAPSSKSTSGGTAALGCLVKDYFPEPVTVSWNSGALTSGVHTFPAVLQSSGLYSLSSVVTVPSSSLGTQTYICNVNHKPSNTKVDKRV[human IgG1 Fc with changes left out here]GGGGSGGGGSEVQLLESGGGLVQPGGSLRLSCAASGFSFSSGYDMCWVRQAPGKGLEWIACIAAGSAGITYDANWAKGRFTISRDNSKNTLYLQMNSLRAEDTAVYYCARSAFSFDYAMDLWGQGTLVTVSSGGGGSGGGGSGGGGSGGGGSDIQMTQSPSTLSASVGDRVTITCQASQSISSHLNWYQQKPGKAPKLLIYKASTLASGVPSRFSGSGSGTEFTLTISSLQPDDFATYYCQQGYSWGNVDNVFGGGTKVEIKGGGGSGGGGSGRSLVESGGGLVQPGGSLRLSCTASGFTISSYHMQWVRQAPGKGLEYIGTISSGGNVYYASSARGRFTISRPSSKNTVDLQMNSLRAEDTAVYYCARDSGYSDPMWGQGTLVTVSSGGGGSGGGGSGGGGSGGGGSDVVMTQSPSSVSASVGDRVTITCQASQNIRTYLSWYQQKPGKAPKLLIYAAANLASGVPSRFSGSGSGTDFTLTISDLEPGDAATYYCQSTYLGTDYVGGAFGGGTKVEIK
light: ENVLTQSPASLSASPGERVTITCSASSSVSYMHWYQQKPGQAPKLWIYDTSKLASGVPSRFSGSGSGNDHTLTISSMEPEDFATYYCFQGSVYPFTFGQGTKVTVLGGGGSGGGGSGGGGSGGGGSQVTLKESGPGLVQPGQTLSLTCAFSGFSLSTSGMGVGWIRQPPGKGLEWLAHIWWDDDKRYNPALKSRLTISKDTSKNQVYLQMNSLDAEDTAVYYCARMELWSYYFDYWGQGTLVTVSSGGGGSGGGGSDVVMTQSPSTLSASVGDRVTINCQASESISSWLAWYQQKPGKAPKLLIYEASKLASGVPSRFSGSGSGTEFTLTISSLQPDDFATYYCQGYFYFISRTYVNSFGCGTKVEIKRTVAAPSVFIFPPSDEQLKSGTASVVCLLNNFYPREAKVQWKVDNALQSGNSQESVTEQDSKDSTYSLSSTLTLSKADYEKHKVYACEVTHQGLSSPVTKSFNRGECGGGGSGGGGSGGGGSQSALTQPASVSGSPGQSITISCTGTSSDVGGYNFVSWYQQHPGKAPKLMIYDVSDRPSGVSDRFSGSKSGNTASLIISGLQADDEADYYCSSYGSSSTHVIFGGGTKVTVLGGGGSGGGGSGGGGSGGGGSQVQLQESGGGLVKPGGSLSLSCAASGFTFSSYWMSWVRQAPGKGLEWVANINRDGSASYYVDSVKGRFTISRDDAKNSLYLQMNSLRAEDTAVYYCARDRGVGYFDLWGRGTLVTVSS
Turning to B1, the “TDCC EC50 (pM)” value with EGFR on BxPC-3 cells [1] came to 0.0939 pM.

B2: SI-55P9 (other)
heavy: EIVLTQSPSTLSVSPGERATFSCRASQSIGTNIHWYQQKPGKPPRLLIKYASESISGIPDRFSGSGSGTEFTLTISSVQSEDFAVYYCQQNNNWPTTFGPGTKLTVLGGGGSGGGGSGGGGSGGGGSQVQLQQSGPGLVKPSETLSITCTVSGFSLTNYGVHWIRQAPGKGLEWLGVIWSGGNTDYNTPFTSRFTITKDNSKNQVYFKLRSVRADDTAIYYCARALTYYDYEFAYWGQGTLVTVSSGGGGSGGGGSEVQLVESGGGLVQPGGSLRLSCAASGFTISTNAMSWVRQAPGKGLEWIGVITGRDITYYASWAKGRFTISRDNSKNTLYLQMNSLRAEDTAVYYCARDGGSSAITSNNIWGQGTLVTVSSASTKGPSVFPLAPSSKSTSGGTAALGCLVKDYFPEPVTVSWNSGALTSGVHTFPAVLQSSGLYSLSSVVTVPSSSLGTQTYICNVNHKPSNTKVDKRV[human IgG1 Fc with changes left out here]GGGGSGGGGSEVQLLESGGGLVQPGGSLRLSCAASGFSFSSGYDMCWVRQAPGKGLEWIACIAAGSAGITYDANWAKGRFTISRDNSKNTLYLQMNSLRAEDTAVYYCARSAFSFDYAMDLWGQGTLVTVSSGGGGSGGGGSGGGGSGGGGSDIQMTQSPSTLSASVGDRVTITCQASQSISSHLNWYQQKPGKAPKLLIYKASTLASGVPSRFSGSGSGTEFTLTISSLQPDDFATYYCQQGYSWGNVDNVFGGGTKVEIKGGGGSGGGGSGRSLVESGGGLVQPGGSLRLSCTASGFTISSYHMQWVRQAPGKGLEYIGTISSGGNVYYASSARGRFTISRPSSKNTVDLQMNSLRAEDTAVYYCARDSGYSDPMWGQGTLVTVSSGGGGSGGGGSGGGGSGGGGSDVVMTQSPSSVSASVGDRVTITCQASQNIRTYLSWYQQKPGKAPKLLIYAAANLASGVPSRFSGSGSGTDFTLTISDLEPGDAATYYCQSTYLGTDYVGGAFGGGTKVEIK
light: ENVLTQSPASLSASPGERVTITCSASSSVSYMHWYQQKPGQAPKLWIYDTSKLASGVPSRFSGSGSGNDHTLTISSMEPEDFATYYCFQGSVYPFTFGQGTKVTVLGGGGSGGGGSGGGGSGGGGSQVTLKESGPGLVQPGQTLRLTCAFSGFSLSTSGMGVGWIRQPPGKGLEWLAHIWWDDDKRYNPALKSRLTISKDTSKNQVYLQMNSLDAEDTAVYYCARMELWSYYFDYWGQGTLVTVSSGGGGSGGGGSDVVMTQSPSTLSASVGDRVTINCQASESISSWLAWYQQKPGKAPKLLIYEASKLASGVPSRFSGSGSGTEFTLTISSLQPDDFATYYCQGYFYFISRTYVNSFGGGTKVEIKRTVAAPSVFIFPPSDEQLKSGTASVVCLLNNFYPREAKVQWKVDNALQSGNSQESVTEQDSKDSTYSLSSTLTLSKADYEKHKVYACEVTHQGLSSPVTKSFNRGEC
notes: Penta-specific GNC antibody: αEGFR H7 scFv (D1), αCD3 (D2 Fab), αPD-L1 (D3), α4-1BB (D4), αCD19 (D6); also called penta-GNC antibody, H7 scFv
On to B2, for which, in the assay with EGFR on BxPC-3 cells [2], the “TDCC EC50 (pM)” value is 0.573 pM. Moreover, in the assay with His-tagged human EGFR [3], the Kd (in general, the constant that tells how readily two partners part at equilibrium) amounted to 6.88 nM. For the same molecule, in the assay with His-tagged human EGFR [4], the Kd stood at 6.88 nM; the koff (as a rule, the rate constant with which the complex falls apart) came to 0.00204 s⁻¹; the kon (in general, the second-order rate constant of association) was 297000 M⁻¹ s⁻¹.
